{
  "source": "patent US20240132588A1",
  "about": "(SHAPERON, published 2024)",
  "binders": {"B1": {"name": "Anti-CD47 HCAb (CD47 Nb #02-IgG1) (Fc fusion)", "heavy": "QVQLVESGGGLVQPGGSLRLSCTASGSTLNYYIISWFRQTPGKEREGVSCIGSSGAGTNYAASVKGRFTISRDDAQNTVYLFMNDLKPEDTAVYYCAARPFSFSPFCTFAGMKDWGKGTLVTVSSGPGGP[human IgG1 Fc with changes left out here]", "notes": "Heavy chain-only antibody: alpaca VHH CD47 Nb#02 fused to a human IgG1 Fc domain, expressed in Expi-CHO cells"}},
  "key": {"[1]": {"biological_target": "T1, CD47 antigen expressed on Expi-CHO_CD47 cells (human, UniProt Q08722)", "T1 construct": "whole, on cells; also called Expi-CHO cells that constantly express the CD47 antigen", "experiment": "FACS on Expi-CHO_CD47 cells, anti-human IgG Fc APC detection"}, "[2]": {"biological_target": "T1, CD47 antigen expressed on Expi-CHO_CD47 …", "experiment": "FACS competition: displacement of human SIRPalpha-His (10 µg/ml) from Expi-CHO_CD47 cells"}, "[3]": {"biological_target": "T2, CD47 protein (CD47 antigen, soluble, Octet analyte) (human, UniProt Q08722 in part, limits assumed)", "T2 construct": "Recombinant soluble CD47 used as analyte at 10 to 400 nM; The construct is not described; also called immune antigen protein; human CD47 protein", "experiment": "BLI (Octet RED 96e), HCAb on anti-human Fc tips, CD47 antigen 10-400 nM, 1:1 global fit"}},
  "data": [
    {"binder": "B1", "values": [
      {"measurement": "EC50", "setting": "[1]", "value": 14.6, "unit": "nM"},
      {"measurement": "IC50", "setting": "[2]", "value": 75.2, "unit": "nM"},
      {"measurement": "Kd", "setting": "[3]", "value": 5.07, "unit": "nM"},
      {"measurement": "koff", "setting": "[3]", "value": 0.000721, "unit": "s⁻¹"},
      {"measurement": "kon", "setting": "[3]", "value": 142000, "unit": "M⁻¹ s⁻¹"}
    ]}
  ]
}
